Assay results taken from PubChem BioAssay AID1030 (National Center for Advancing Translational Sciences (NCATS), 2008).
Hit rate of the full screen: of about 220,000 compounds, about 16,000 (7.3%) were called active. Inconclusive results, whose numbers are uncertain, are shown with a selection of clear calls. The call rests on the fitted dose curve; in most records, active means well fitted inhibition curve with a large enough effect (not every such curve was filed as active); inconclusive means small, poorly fitted or top-dose-only effect, or another doubt; inactive means no such curve, though single readings can be large or run the other way. No potency is given beside an inconclusive call; the fits are too rough. Peptide text beside a SMILES is read from it. * marks the point of attachment. Cbz = O=C(OCc1ccccc1)*

biological target: Aldehyde dehydrogenase 1A1 (Homo sapiens) (UniProt P00352); assay: qHTS Assay for Inhibitors of Aldehyde Dehydrogenase 1 (ALDH1A1); settings: Purified ALDH1A1, NADH fluorescence, propionaldehyde substrate; series mostly up to 75.3 µM;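 on activity, negative = inhibition: plate controls were no enzyme wells and a reference inhibitor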
Potency means the concentration at half of the fitted maximal effect; tags describe the fitted curve by direction and shape.

Sequence of UniProt P00352 (P00352 whole entry, looked up): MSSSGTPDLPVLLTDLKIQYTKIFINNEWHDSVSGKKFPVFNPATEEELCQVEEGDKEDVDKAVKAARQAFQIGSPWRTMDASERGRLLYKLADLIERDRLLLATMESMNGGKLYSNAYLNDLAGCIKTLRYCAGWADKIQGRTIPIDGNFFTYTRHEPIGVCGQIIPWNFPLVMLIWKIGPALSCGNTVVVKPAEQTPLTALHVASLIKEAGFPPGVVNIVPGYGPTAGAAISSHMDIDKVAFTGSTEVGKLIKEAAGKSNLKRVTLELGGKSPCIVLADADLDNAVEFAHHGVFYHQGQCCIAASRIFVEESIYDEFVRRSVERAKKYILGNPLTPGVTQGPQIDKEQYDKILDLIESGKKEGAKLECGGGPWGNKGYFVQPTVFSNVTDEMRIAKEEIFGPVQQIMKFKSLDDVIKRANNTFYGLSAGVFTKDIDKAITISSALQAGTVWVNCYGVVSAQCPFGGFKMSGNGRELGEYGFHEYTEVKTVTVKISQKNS

SMILES | Potency | activity, negative = inhibition
COC(=O)c1ccc(-n2cc(-c3ccc(OC)cc3)[nH]c2=S)cc1 | inconclusive [inhibitor, single point] | –
N#CCSc1nc2[nH]ncc2c(=O)n1-c1ccccc1Br | inconclusive [inhibitor, partial curve] | –
N#CC(=C1CCCC1)c1nc(-c2ccccc2O)cs1 | active: 25.1 µM | –
CCOC(=O)c1ccccc1NC(=O)CSc1nc(N)cc(=O)[nH]1 | inactive | –
O=C(/C=C/c1ccco1)Nc1ccccc1N1CCCC1 | inactive | –
CCO/C(C)=N/n1c2nc3ccccc3nc2c2c(=O)n(C3CCCC3)c(C)nc21 | inconclusive [inhibitor, single point] | –
COc1ccc(NC(=O)CC(c2ccc(F)cc2)c2ccc(OC(C)C)cc2)cc1 (stereo unspecified) | active: 0.199 µM | –
Cc1ccc(C)c(S(=O)(=O)NCc2cccnc2)c1 | inactive | –
Cn1c(SCC(=O)c2cc3ccccc3o2)nnc1-c1ccccc1 | active: 28.2 µM | –
CCOC(=O)C1(CCCc2ccccc2)CCN(C(=O)C(C)n2cncn2)CC1 (stereo unspecified) | active: 7.08 µM | –
COc1ccc(CSc2nnc(N)s2)cc1F | inactive | –
CC(C)c1[nH]nc2c1C(c1ccco1)C(C#N)=C(N)O2 (stereo unspecified) | inconclusive [inhibitor, single point] | –
O=C(O)CSc1nnc(Cc2ccccc2)n1-c1ccccc1 | inconclusive [inhibitor, single point] | –
COC(=O)C1=C(C)N=C2SCCC(=O)N2C1/C=C/c1ccccc1 (stereo unspecified) | inconclusive [inhibitor, single point] | –
Cc1nnc(SCc2ccc(C(=O)c3ccc(Cl)cc3)o2)n1-c1ccccc1 | inconclusive [inhibitor, single point] | –
C=CCn1c(SCCOC)nc2c1c(=O)[nH]c(=O)n2C | inconclusive [inhibitor, single point] | –
CCOc1ccccc1NC(=O)CCCn1cc([N+](=O)[O-])cn1 | inconclusive [inhibitor, single point] | –
Cc1cc(S(=O)(=O)N(Cc2ccccc2)Cc2ccc(N(C)C)cc2)ccc1-n1cnnn1 | inconclusive [inhibitor, single point] | –
N#Cc1cccc(NC(=O)CSc2ccccc2)c1 | inactive | –
O=C[C@@H]1CCCN1C(=O)[C@@H]1CCCN1C(=O)OCc1ccccc1 (Cbz-Pro-Pro-aldehyde) | active: 7.94 µM | –
COc1ccccc1-c1nc(C#N)c(N2CCN(C(c3ccccc3)c3ccccc3)CC2)o1 | inconclusive [inhibitor, full curve] | –
Cc1ncoc1C(=O)N1CCCC(CCC(=O)NCc2ccc(F)c(F)c2)C1 (stereo unspecified) | inconclusive [inhibitor, single point] | –
COCCNC(=O)NC1(C(F)(F)F)Oc2ccc(Cl)cc2O1 (stereo unspecified) | inconclusive [inhibitor, single point] | –
CC(C)c1ccc(C2C(C#N)=C(N)Oc3c2oc(CO)cc3=O)cc1 (stereo unspecified) | inconclusive [inhibitor, single point] | –
COC(=O)c1ccc(C(=O)OC)c(NC(=O)COC(=O)C23CC4CC(CC(O)(C4)C2)C3)c1 | inconclusive [inhibitor, single point] | –
O=C(Nc1cnccn1)c1csc2ccccc12 | inconclusive [inhibitor, single point] | –

SMILES | Potency | activity, negative = inhibition
COc1ccc2nc(SCC(=O)Nc3ccc4c(c3)CCC4)[nH]c2c1 | active: 11.2 µM | –
Cc1cccc2nc(-c3ccccc3)nc(N3CCC(O)(c4ccc(Cl)cc4)CC3)c12 | inconclusive [inhibitor, single point] | –
COc1ccc(Nc2ncc3nc(-c4cccs4)c(=O)n(Cc4cccc(OC)c4)c3n2)cc1 | inconclusive [inhibitor, single point] | –
CCOC(=O)NC(=O)CSc1cc(C)c2cc(C)cc(C)c2n1 | inactive | –
N#Cc1nc(-c2ccco2)oc1N1CCN(Cc2ccccc2)CC1 | inconclusive [inhibitor, partial curve] | –
O=C(CSc1nc2[nH]ncc2c(=O)n1-c1ccccc1Br)NCc1ccccc1Cl | active: 12.6 µM | –
O=C1C2CCCCC2C(=O)N1Cc1ccccc1 (stereo unspecified) | inconclusive [inhibitor, single point] | –
CN(C)S(=O)(=O)c1cccc(NC(=S)NC(=O)C2CCCCC2)c1 | inconclusive [inhibitor, single point] | –
CC(C)c1nc2oc3c(NCc4cccnc4)ncnc3c2c2c1CCC2 | inconclusive [inhibitor, partial curve] | –
Cc1nc(-c2ccc(C(F)(F)F)cc2)sc1C(=O)NN | active: 1.12 µM | –
CCOC(=O)N1CCC(NC(=O)C2CCN(c3ccc(N4CCOCC4)nn3)CC2)CC1 | inconclusive [inhibitor, partial curve] | –
c1cc2c3c(cccc3c1)NC1(CCC3(CC1)Nc1cccc4cccc(c14)N3)N2 | inconclusive [inhibitor, partial curve] | –
CCCCN1C(=O)Cc2c1nc(N)c1c(N)nc(N(CCC)CCC)c(C#N)c21 | inconclusive [inhibitor, single point] | –
Cc1ccc(S(=O)(=O)N[C@H]2COC(=O)[C@@H](C)COC(=O)C/C=C\[C@H]2C)cc1 | – | inactive: 4.89% [at 13.5 µM]
CCOc1ccccc1NC(=O)COn1nnc2ccc(Cl)cc21 | active: 15.8 µM | –
COC(=O)Cc1ccc(NC(=S)N2CCCCC2C)cc1 (stereo unspecified) | inactive | –
COc1cc(N=C2C(=O)N3CCCc4cccc2c43)cc(OC)c1 | active: 0.631 µM | –
C=CCNC(=S)NNC(=O)c1cccc2ccccc12 | inactive | –
c1ccc(COc2ccc(OCCCCN3CCCCC3)cc2)cc1 | inconclusive [inhibitor, full curve] | –
CCOCCCNC(=O)c1ccccc1Br | inactive | –
N#C/C(=C\c1ccc([N+](=O)[O-])cc1)C(=O)Nc1ccccc1O | active: 17.8 µM | –
O=C(CSc1nc(CCC2CCCC2)nc2ccccc12)NCc1ccc2c(c1)OCO2 | inactive | –
CN(CCc1ccccn1)Cc1ccc(Cl)cc1 | inactive | –
C=C(C)Cn1cnc2c(oc3nc4c(cc32)CCCC4)c1=O | active: 1 µM | –
O=C(CCl)Nc1ccccc1C(=O)c1ccccc1 | active: 25.1 µM | –
CCN(CC)CCCn1c(-c2ccccc2)nc2c(N(CCOC)CCOC)nc(C)nc21 | inconclusive [inhibitor, single point] | –

SMILES | Potency | activity, negative = inhibition
Clc1ccc2oc(-c3ccccn3)nc2c1 | inconclusive [inhibitor, single point] | –
CCN(CC)c1ccc(NC(=O)c2ccccc2F)cc1S(=O)(=O)Nc1ccccc1OC | active: 4.47 µM | –
CSc1nc2ccc(Cl)cc2[nH]1 | inactive | –
CC(=O)Nc1ccc(S(=O)(=O)NC(C)C(=O)NCCc2ccc(F)cc2)cc1 (stereo unspecified) | inactive | –
CC1CC(OCC(O)C[N+]2(C)CCOCC2)CC(C)(C)C1 (stereo unspecified) | inactive | –
CN(C)S(=O)(=O)Oc1cc(Cl)ccc1C(=O)Nc1ccc(F)cc1F | inactive | –
COc1cccc(-c2nc3n(n2)C(c2ccc4c(c2)OCO4)C(C(N)=O)=C(C)N3)c1 (stereo unspecified) | inactive | –
Cc1cccc(CN2CCN(Cc3cccc4nonc34)CC2CCO)n1 (stereo unspecified) | inconclusive [inhibitor, single point] | –
Cc1ccc(Nc2cc(=O)n(C3CCCCC3)c(=O)[nH]2)cc1C | active: 1 µM | –
O=c1[nH]cnc2nc[nH]c12 | inconclusive [inhibitor, single point] | –
CC[C@@H]1C(c2ccc(F)cc2)=NN(c2ccc(Br)cc2)[C@H]1C(=O)N1CCOC1=O | inconclusive [inhibitor, single point] | –
Cc1cc(O)c(NC(=S)NC(=O)c2ccc(-c3ccc(Cl)cc3)o2)cc1C | inconclusive [inhibitor, single point] | –
CC(C)NC(=O)Cn1nnc(-c2ccc(Cl)cc2)n1 | active: 10 µM | –
Cn1ncc2c(NNC(=O)c3ccc(Cl)cc3Cl)ncnc21 | inactive | –
CCCc1ccc(Oc2cc(C)nc(N3CCOCC3)n2)cc1 | inconclusive [inhibitor, partial curve] | –
O=C(Nc1ccc(Cl)cn1)c1ccc(Br)c(S(=O)(=O)N2CCCCC2)c1 | inconclusive [inhibitor, single point] | –
O=C(COc1ccc(Cl)c(Cl)c1)NN1C(=O)C2C(C1=O)C1C=CC2C12CC2 (stereo unspecified) | inconclusive [inhibitor, single point] | –
O=c1c(-c2cc(F)cc(F)c2)nc2cnc(N3CCNCC3)nc2n1-c1ccccc1 | inconclusive [inhibitor, partial curve] | –
CSc1cccc(-n2cc(-c3ccc4c(c3)OCO4)[nH]c2=O)c1 | inconclusive [inhibitor, single point] | –
COc1ccc(C2=NN(CN3C(=O)C(=O)c4ccccc43)C(c3ccc(Br)cc3)C2)cc1 (stereo unspecified) | active: 0.282 µM | –
O=C1CS/C(=C/C(=O)c2ccccc2)N1 | inactive | –
CCOC(=S)SCC(=O)N1CCc2ccccc2C1C1C(=O)CCCC1=O (stereo unspecified) | inconclusive [inhibitor, single point] | –
O=C(CNC(=O)C(c1ccccc1)c1ccccc1)N/N=C/c1cccnc1 | inconclusive [inhibitor, partial curve] | –
C=CCNC(=O)N1CCc2nc(CCCC)c3c(c2C1)CO[C@@H](C)C3 | – | inactive: 6.78% [at 13.5 µM]
